This is one part of the list.
Legend:
Assay in all cases: glycan array binding signal (z-score within array); higher = stronger binding
Conditions in all cases: glycan notation: IUPAC condensed, linker removed
Gal3S(b1-4)Glc = molecular target: Gal3S(b1-4)Glc
How it was run: (§1)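 Glycan array binding is given as a within-array Z-score, which can be read as non-binding when negative. The arrays, 3228 of them, came from the Consortium for Functional Glycomics database and were retained only where the protein sequence was available. Z-scores were averaged across arrays of the same protein sequence at different concentrations or buffers and across linkers.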

Gal3S(b1-4)Glc6S = molecular target: Gal3S(b1-4)Glc6S
How it was run: as §1

Gal3S(b1-4)GlcNAc = molecular target: Gal3S(b1-4)GlcNAc
How it was run: as §1

[1] = molecular target: Gal3S(b1-4)[Fuc(a1-3)]Glc6S
How it was run: as §1

[2] = molecular target: Gal3S(b1-4)[Fuc(a1-3)]GlcNAc
How it was run: as §1

[3] = molecular target: Gal3S(b1-4)[Fuc(a1-3)]GlcNAc6S
How it was run: as §1

Gal3S4S(b1-4)GlcNAc = molecular target: Gal3S4S(b1-4)GlcNAc
How it was run: as §1

Gal3S6S(b1-4)GlcNAc = molecular target: Gal3S6S(b1-4)GlcNAc
How it was run: as §1

Gal3S6S(b1-4)GlcNAc6S = molecular target: Gal3S6S(b1-4)GlcNAc6S
How it was run: as §1

Gal4S(b1-4)GlcNAc = molecular target: Gal4S(b1-4)GlcNAc
How it was run: as §1

Gal4S6S(b1-4)GlcNAc = molecular target: Gal4S6S(b1-4)GlcNAc
How it was run: as §1

Gal6P(b1-4)GlcNAc = molecular target: Gal6P(b1-4)GlcNAc
How it was run: as §1

Gal6S(b1-3)GlcNAc = molecular target: Gal6S(b1-3)GlcNAc
How it was run: as §1

Gal6S(b1-3)GlcNAc6S = molecular target: Gal6S(b1-3)GlcNAc6S
How it was run: as §1

Gal6S(b1-4)Glc = molecular target: Gal6S(b1-4)Glc
How it was run: as §1

Gal6S(b1-4)Glc6S = molecular target: Gal6S(b1-4)Glc6S
How it was run: as §1

Gal6S(b1-4)GlcNAc = molecular target: Gal6S(b1-4)GlcNAc
How it was run: as §1

Gal6S(b1-4)GlcNAc6S = molecular target: Gal6S(b1-4)GlcNAc6S
How it was run: as §1

GalNAc(a1-3)Gal = molecular target: GalNAc(a1-3)Gal
How it was run: as §1

GalNAc(a1-3)GalNAc = molecular target: GalNAc(a1-3)GalNAc
How it was run: as §1

[4] = molecular target: GalNAc(a1-3)GalNAc(b1-3)Gal(a1-4)Gal(b1-4)Glc
How it was run: as §1

[5] = molecular target: GalNAc(a1-3)GalNAc(b1-3)Gal(a1-4)Gal(b1-4)GlcNAc
How it was run: as §1

GalNAc(b1-3)Gal = molecular target: GalNAc(b1-3)Gal
How it was run: as §1

[6] = molecular target: GalNAc(b1-3)Gal(a1-4)Gal(b1-4)GlcNAc
How it was run: as §1

[7] = molecular target: GalNAc(b1-3)Gal(a1-4)Gal(b1-4)GlcNAc(b1-3)Gal(b1-4)Glc
How it was run: as §1

[8] = molecular target: GalNAc(b1-3)Gal(a1-6)Gal(b1-4)Glc
How it was run: as §1

GalNAc(b1-3)GalNAc = molecular target: GalNAc(b1-3)GalNAc
How it was run: as §1

GalNAc(b1-3)GlcNAc = molecular target: GalNAc(b1-3)GlcNAc
How it was run: as §1

GalNAc(b1-4)Gal(b1-4)Glc = molecular target: GalNAc(b1-4)Gal(b1-4)Glc
How it was run: as §1

GalNAc(b1-4)GlcNAc = molecular target: GalNAc(b1-4)GlcNAc
How it was run: as §1

[9] = molecular target: GalNAc(b1-4)GlcNAc(b1-2)Man
How it was run: as §1

[10] = molecular target: GalNAc(b1-4)GlcNAc(b1-2)Man(a1-3)[GalNAc(b1-4)GlcNAc(b1-2)Man(a1-6)]Man(b1-4)GlcNAc(b1-4)GlcNAc
How it was run: as §1

[11] = molecular target: GalNAc(b1-4)GlcNAc(b1-3)GalNAc(b1-4)GlcNAc
How it was run: as §1

GalNAc(b1-4)GlcNAc6S = molecular target: GalNAc(b1-4)GlcNAc6S
How it was run: as §1

GalNAc(b1-6)GalNAc = molecular target: GalNAc(b1-6)GalNAc
How it was run: as §1

GalNAc3S(b1-4)GlcNAc = molecular target: GalNAc3S(b1-4)GlcNAc
How it was run: as §1

GalNAc3S(b1-4)GlcNAc3S = molecular target: GalNAc3S(b1-4)GlcNAc3S
How it was run: as §1

B1: SAOUHSC 00176 (Staphylococcus aureus) (protein)
chain: MSKILKCITLAVVMLLIVTACGPNRSKEDIDKALNKDNSKDKPNQLTMWVDGDKQMAFYKKITDQYTKKTGIKVKLVNIGQNDQLENISLDAPAGKGPDIFFLAHDNTGSAYLQGLAAEIKLSKDELKGFNKQALKAMNYDNKQLALPAIVETTALFYNKKLVKNAPQTLEEVEANAAKLTDSKKKQYGMLFDAKNFYFNYPFLFGNDDYIFKKNGSEYDIHQLGLNSKHVVKNAERLQKWYDKGYLPKAATHDVMIGLFKEGKVGQFVTGPWNINEYQETFGKDLGVTTLPTDGGKPMKPFLGVRGWYLSEYSKHKYWAKDLMLYITSKDTLQKYTDEMSEITGRVDVKSSNPNLKVFEKQARHAEPMPNIPEMRQVWEPMGNASIFISNGKNPKQALDEATNDITQNIKILHPSQNDKKGD
- glycan array binding signal (z-score) (Gal3S(b1-4)Glc): -0.052
- glycan array binding signal (z-score) (Gal3S(b1-4)Glc6S): -0.092
- glycan array binding signal (z-score) (Gal3S(b1-4)GlcNAc): -0.048
- glycan array binding signal (z-score) [1]: -0.09
- glycan array binding signal (z-score) [2]: 0.066
- glycan array binding signal (z-score) [3]: 0.008
- glycan array binding signal (z-score) (Gal3S4S(b1-4)GlcNAc): -0.1
- glycan array binding signal (z-score) (Gal3S6S(b1-4)GlcNAc): 0.043
- glycan array binding signal (z-score) (Gal3S6S(b1-4)GlcNAc6S): -0.079
- glycan array binding signal (z-score) (Gal4S(b1-4)GlcNAc): -0.064
- glycan array binding signal (z-score) (Gal4S6S(b1-4)GlcNAc): -0.092
- glycan array binding signal (z-score) (Gal6P(b1-4)GlcNAc): -0.136
- glycan array binding signal (z-score) (Gal6S(b1-3)GlcNAc): -0.116
- glycan array binding signal (z-score) (Gal6S(b1-3)GlcNAc6S): -0.159
- glycan array binding signal (z-score) (Gal6S(b1-4)Glc): -0.105
- glycan array binding signal (z-score) (Gal6S(b1-4)Glc6S): 0.076
- glycan array binding signal (z-score) (Gal6S(b1-4)GlcNAc): -0.104
- glycan array binding signal (z-score) (Gal6S(b1-4)GlcNAc6S): -0.086
- glycan array binding signal (z-score) (GalNAc(a1-3)Gal): -0.109
- glycan array binding signal (z-score) (GalNAc(a1-3)GalNAc): 0.009
- glycan array binding signal (z-score) [4]: -0.149
- glycan array binding signal (z-score) [5]: -0.027
- glycan array binding signal (z-score) (GalNAc(b1-3)Gal): -0.081
- glycan array binding signal (z-score) [6]: -0.02
- glycan array binding signal (z-score) [7]: -0.117
- glycan array binding signal (z-score) [8]: -0.142
- glycan array binding signal (z-score) (GalNAc(b1-3)GalNAc): -0.142
- glycan array binding signal (z-score) (GalNAc(b1-3)GlcNAc): -0.169
- glycan array binding signal (z-score) (GalNAc(b1-4)Gal(b1-4)Glc): 0.067
- glycan array binding signal (z-score) (GalNAc(b1-4)GlcNAc): -0.042
- glycan array binding signal (z-score) [9]: -0.128
- glycan array binding signal (z-score) [10]: 0.072
- glycan array binding signal (z-score) [11]: -0.092
- glycan array binding signal (z-score) (GalNAc(b1-4)GlcNAc6S): -0.057
- glycan array binding signal (z-score) (GalNAc(b1-6)GalNAc): -0.168
- glycan array binding signal (z-score) (GalNAc3S(b1-4)GlcNAc): -0.115
- glycan array binding signal (z-score) (GalNAc3S(b1-4)GlcNAc3S): -0.084
